Assays:
[1] = tested on: hCCR8, Chimera A and Chimera B (hCCR8/hCCR1 chimeras); assay: Epitope mapping by flow cytometry on HEK293T cells expressing hCCR8 or hCCR8/hCCR1 chimeras; format: binding, human; conditions: hCCR8 vs Chimera A vs Chimera B, MFI comparison
Text: Determination of binding epitope location on hCCR8 was done for representative VHH-Fc antibodies by flow cytometry analysis using HEK293T cells expressing hCCR8 or two receptor chimeras comprised of combined sequence elements taken from hCCR8 (SEQ ID NO: 37) and hCCR1 (SEQ ID NO: 39). In the first, Chimera A based on hCCR8, the N-terminal region of the receptor (SEQ ID NO: 38) was replaced with a sequence encoding the N-terminal region of hCCR1 (SEQ ID NO: 40). In Chimera B based on hCCR1, the N-terminal region of the receptor was replaced by the sequence encoding the hCCR8 N-terminus (SEQ ID NO: 38).

[2] = molecular target: T1, hCCR8 (Homo sapiens, UniProt P51685); assay: Flow cytometry binding of VHH-Fc fusion antibodies to hCCR8 on stably transfected HEK293 cells; conditions: Table 10; for EC50: parental and humanized VHH-Fc, HEK293 cells expressing human CCR8; for Bmax (%): normalized relative to respective parental clone
T1 construct: expressed in transfected cells
T1 sequence (P51685 whole entry, the tested form may be a part): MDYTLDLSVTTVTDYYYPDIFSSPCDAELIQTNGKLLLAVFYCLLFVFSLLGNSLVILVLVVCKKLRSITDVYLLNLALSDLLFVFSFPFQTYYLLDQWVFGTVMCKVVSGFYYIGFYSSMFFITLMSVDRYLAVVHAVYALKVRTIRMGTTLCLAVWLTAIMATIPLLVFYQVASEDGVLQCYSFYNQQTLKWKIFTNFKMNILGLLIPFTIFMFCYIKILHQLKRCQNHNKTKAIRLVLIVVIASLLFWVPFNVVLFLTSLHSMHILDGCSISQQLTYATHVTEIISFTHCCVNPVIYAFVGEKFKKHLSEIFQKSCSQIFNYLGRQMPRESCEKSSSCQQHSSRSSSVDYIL
Procedure: VHH-Fc fusion antibodies were evaluated for their ability to bind to hCCR8 on stably transfected HEK293 cells by means of flow cytometry. Cells were incubated with different concentrations of the bivalent VHH-Fc fusions for 60 minutes at 4° C., followed by two washes with FACS buffer, followed by 30 minutes incubation at 4° C. with the Zenon R-Phycoerythrin Anti-human IgG (ThermoFisher Scientific, #Z-25455), and two additional washing steps. Data were plotted and fit using GraphPad Prism software. EC50 and Bmax values individual antibodies were calculated from the resulting dose-response curves. Bivalent VHH-Fc fusions (Seq ID NOs: 31, 33, and 87-103) of 19 different VHH domains (SEQ ID NOs: 27, 28, and 70-86) were tested for cell binding and results are shown in Table 7. […]
VHH-Fc fusion DNA constructs were then generated comprising encoding humanized VHH sequences (SEQ ID NOs: 106-111) fused in frame to the human IgG1 (SEQ ID NO: 34) directly to the short hinge sequence in the pFuse expression vector, and were expressed, purified and analyzed for binding to HEK293 cells expressing human CCR8 as in Example 5. Binding curves for VHH-Fc antibodies comprised of parental VHH-1 and the humanized VHH derivatives VHH-1.2-Fc and VHH-1.3-Fc are shown in FIG. 9A. Binding curves for VHH-Fc antibodies comprised of parental VHH-2 and the humanized VHH derivatives VHH-2-Fc, VHH-2.2-Fc and VHH-2.3-Fc, are shown in FIG. 9B. Cell binding EC50 values, normalized Bmax (relative to respective parental clone) data and humanizing mutations are shown in Table 10 below.
Approaches such as in vitro affinity maturation and rational mutagenesis can be performed to regain binding affinity and/or stability lost through humanization. In vitro affinity maturation generally involves building and amino acid substitution library where amino acid positions are varied across the CDRs and/or framework at a defined set of positions using sets of amino acids chosen to introduce new chemical diversity. The paratope residues within the CDR regions are of course key to antigen binding and care must be taken not to disrupt important structures while attempting to evolve improve antibody behavior. One approach to identify positions that are important to the maintenance of binding properties is to perform paratope mapping using single scanning alanine substitutions across antibody CDR regions. In this approach, residues that are critical to the maintenance of antibody binding to the antigen can be identified and at the same time permissive sites can be identified where it may be possible to make substitutions of other amino acids desirable for subsequent affinity maturation library construction. Site directed mutagenesis was used to make single alanine substitutions at each residue in the CDRs of VHH-1 (SEQ ID NO: 27) and VHH-2 (SEQ ID NO: 28). Changes in VHH-1 CDR amino acids to alanine are indicated in Table 11 (SEQ ID NOs: 112-137) and for VHH-2 CDRs (SEQ ID NO: 138-162) in Table 12. Mutation positions and residue changes to alanine with respect to the in the parental VHH sequences are referenced by their IMGT position. VHH domains containing the indicated modified CDR-1, CDR-2 or CDR-3 domains were used to construct Fc fusions by direct grafting to the short hinge of the human Fc domain (SEQ ID NO: 34). VHH-Fc constructs were expressed, purified and analyzed for binding to HEK293 cells expressing hCCR8 and the results are reported in Table 11 and Table 12. EC50 values are reported for each Fc fusion antibody containing a modified CDR, along with its respective Bmax value normalized to the to the matched wild type VHH-1-Fc or VHH-2-Fc fusion antibody.

[3] = molecular target: T1, hCCR8; assay: Inhibition of CCL1-induced β-arrestin recruitment (DiscoverX PathHunter eXpress); format: cell-based; conditions: CCL1 at EC80; for IC50 values (in words): FIG. 5
Text: Agonist-induced internalization of hCCR8 and other GPCRs is a regulatory mechanism often driven by engagement of the activated receptor by β-arrestin. Antagonism of this pathway is desirable to prevent the loss of bound anti-CCR8 antibodies from the cell surface with a concomitant loss efficacy. We characterized VHH-Fc molecules for the inhibition of CCL1-induced β-arrestin recruitment (DiscoverX PathHunter® eXpress, Eurofins) (FIG. 5). A fixed concentration (EC80) of the hCCR8 agonist CCL1 (R&D Systems, #272-I) was used to stimulate receptor β-arrestin recruitment. Multipoint dilution series of the VHH-Fc molecules were mixed with the assay components to inhibit CCL1 activation of CCR8.
Selected optimized VHH-Fc molecules were evaluated for functional inhibition of CCL1-induced hCCR8 activation and recruitment of β-arrestin (DiscoverX PathHunter® eXpress, Eurofins) signaling (FIG. 12). In this assay, a fixed concentration (EC80) of the hCCR8 agonist CCL1 (R&D Systems, #272-I) was used to stimulate receptor b-arrestin signaling. Multipoint dilution series of individual VHH-Fc molecules were mixed with the assay components to generate inhibition curves, from which the concentration necessary to achieve 50% inhibition (IC50) could be determined. Data were plotted and fit using GraphPad Prism software and IC50 values individual antibodies were calculated from the resulting dose-response curves. Fc fusions of VHH-1 (SEQ ID NO: 27), VHH-1.3 (SEQ ID NO: 108), VHH-1.3-19 (SEQ ID NO: 204), and VHH-2.3-2 (SEQ ID NO: 208) were evaluated and found to be potent inhibitors as shown by the sub-nanomolar potency values listed in Table 17.

[4] = molecular target: T1, hCCR8; assay: VHH-Fc binding to hCCR8-expressing HEK293 cells in presence or absence of ML604086 or CCL1; conditions: for cell binding in presence of 10 μM ML604086: HEK293 cells expressing hCCR8, 10 μM ML604086
Procedure: VHH-Fc fusions were evaluated for their ability to bind to hCCR8 expressed on cells in the presence and absence of either the chemokine antagonist CCL1 or the potent small molecule antagonist ML604086. HEK293 cells expressing hCCR8 were incubated with a fixed concentration (10 nM) of VHH-1-Fc (SEQ ID NO: 31) in the presence of different concentrations ML604086 (FIG. 4A) or in a separate experiment, using fixed concentrations of either ML604086 or CCL1 (FIG. 4B). Binding studies were conducted on hCCR8 expressing cells for 60 minutes at 4° C., followed by two washes and then 30 minutes incubation at 4° C. with the Zenon R-Phycoerythrin Anti-human IgG secondary antibody (ThermoFisher Scientific, #Z-25455). Binding to cells was assessed by flow cytometry. […] The VHH-Fc clones, VHH-1-Fc (SEQ ID NO: 31), VHH-9-Fc (SEQ ID NO: 91), VHH-10-Fc (SEQ ID NO: 92) and VHH-12-Fc (SEQ ID NO: 94) were also tested for binding to HEK293 cells expressing hCCR8 as described above, in the presence or absence of 10 μM added ML604086 (FIG. 4C).

| Molecule | EC50 [2] [nM] | cell binding in presence of 10 μM ML604086 [4] | further results |
| --- | --- | --- | --- |
| VHH-2-Fc: VHH-2 fused to short hinge of human IgG1 Fc, SEQ ID NO: 33 (protein) QVQLQESGGGLVQAGGSLRLTCAVSGSTSTINRFAWYRQAPGKQRELVAATSSRTSPNYADSVKGRFRFSRDNARSAVYLQMDNLRPEDTAVYFCQARMAMGSSQVVYWGLGTQVTVSS[human IgG1 Fc not given here] | 0.78 |  | binding epitope location on hCCR8 [1]: bound exclusively to the hCCR8 TMD; IC50 values (in words) [3]: sub-nanomolar |
| VHH-1.3-Fc: VHH-1.3 (SEQ ID NO: 108) fused to human IgG1 Fc (protein) QVQLQESGGGLVQAGGSLRLTCAVSGSTSTINRFAWYRQAPGKQRELVAATSSRTSPNYADSVKGRFRFSRDNARSAVYLQMDNLRPEDTAVYFCNARMAMGSSQVVYWGLGTQVTVSS[human IgG1 Fc not given here] | 1.79 |  | Bmax (%) [2]: 115.5%; IC50 ([3]; Table 17): 0.26 nM |
| VHH-1-Fc: VHH-1 fused to short hinge of human IgG1 Fc, SEQ ID NO: 31 (protein) QVQLQESGGGLVQAGGSLRLSCVASGSTSSIRRIGWYRQAPGKQRELVARFSSGGGTNYADFVKGRFTISGDNAKNTMYLQMNSLKPEDTAVYYCSARRLLGTSRVDYWGQGTQVTVSS[human IgG1 Fc not given here] | 1.96 | completely blocked | effect of CCL1 on antibody binding to hCCR8 ([4]; 10 nM antibody, highest CCL1 concentration): completely prevent binding; effect of ML604086 on antibody binding to hCCR8 ([4]; 10 nM antibody, highest ML604086 concentration): completely prevent binding; binding epitope location on hCCR8 [1]: bound exclusively to the hCCR8 TMD; IC50 values (in words) [3]: sub-nanomolar |
| VHH-10-Fc: VHH-Fc fusion antibody, SEQ ID NO: 92 (protein) QVQLQESGGGLVQAGGSLRLSCVASGSTSSIRRIGWYRQAPGKQRELVARFSSGGSTNYADFVKGRFTISGDNAKNTMYLQMNSLKPEDTAVYYCSARRLLGTSRVNYWGQGTQVTVSS[human IgG1 Fc not given here] |  | completely blocked |  |
| VHH-9-Fc: VHH-Fc fusion antibody, SEQ ID NO: 91 (protein) QVQLQESGGGLVQAGGSLRLSCVASGSTSSIRRIGWYRQAPGKQRELVARFSSGGSTNYADFVKGRFTISGDNAKNTMYLQMNSLKPEDTAVYYCSARRLLGTSRYDYWGQGTQVTVSS[human IgG1 Fc not given here] |  | completely blocked |  |
| VHH-12-Fc: VHH-Fc fusion antibody, SEQ ID NO: 94 (protein) QVQLQESGGGLVQAGGSLRLSCVASGSTSSIRRIGWYRQAPGKQRELVARFTSGGGTNYADFVKGRFTISGDNAKNTMYLQMNSLKPEDTAVYYCSARRLLGTSRVDSWGQGTQVTVSS[human IgG1 Fc not given here] |  | completely blocked |  |
| VHH-1.2-Fc: VHH-1.2 (SEQ ID NO: 107) fused to human IgG1 Fc (protein) QVQLQESGGGLVQAGGSLRLSCVASGSTSSIRRIGWYRQAPGKQRELVARFTSGGGTNYADFVKGRFTISGDNAKNTMYLQMNSLKPEDTAVYYCSARRLLGTSRVDSWGQGTQVTVSS[human IgG1 Fc not given here] | 2.66 |  | Bmax (%) [2]: 119.3% |
| VHH-2.2-Fc: VHH-2.2 (SEQ ID NO: 110) fused to human IgG1 Fc (protein) EVQLVESGGGLVQPGGSLRLSCAVSGSTSTINRFAWYRQAPGKGLEWVAATSSRTSPNYADSVKGRFTFSRDNSKNTVYLQMNSLRAEDTAVYYCQARMAMGSSQVVYWGQGTTVTVSS[human IgG1 Fc not given here] | 2.12 |  |  |
| VHH-2.3-Fc: VHH-2.3 (SEQ ID NO: 111) fused to human IgG1 Fc (protein) EVQLVESGGGLVQPGGSLRLSCAVSGSTSTINRFAWYRQAPGKGRELVAATSSRTSPNYADSVKGRFTFSRDNSKNTVYLQMNSLRAEDTAVYYCQARMAMGSSQVVYWGQGTTVTVSS[human IgG1 Fc not given here] | 2.22 |  |  |
